Experimental data: PubChem BioAssay AID1745853 (National Center for Advancing Translational Sciences (NCATS), 2022)
Values joined by “and” are separate entries in the source; they are usually repeats but may differ in a detail not shown here. Equal values may be shown once. The list shows a part of the results. Further columns of the screen follow, without active or inactive calls.

Assays:
Experiment in all cases: Primary Screen for Target Class Profiling of Small Molecule Inhibitors of Methyltransferases
[1] = molecular target: Glycine N-methyltransferase (Homo sapiens) (UniProt Q14749); details: purified enzyme, MTase-Glo SAH luminescence; measured here: GNMT inhibition; at 40 µM; stronger effect = lower value
Method in brief: (§1)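 Each enzyme was reacted with SAM and its substrate, with compounds tested once at 40 uM; SAH formed was read by MTase-Glo luminescence.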

[2] = molecular target: Guanidinoacetate N-methyltransferase (Homo sapiens) (UniProt Q14353); details: purified enzyme, MTase-Glo SAH luminescence; measured here: GAMT inhibition; at 40 µM; stronger effect = lower value
Method in brief: as §1

[3] = molecular target: Histamine N-methyltransferase (Homo sapiens) (UniProt P50135); details: purified enzyme, MTase-Glo SAH luminescence; measured here: HNMT inhibition; at 40 µM; stronger effect = lower value
Method in brief: as §1

[4] = molecular target: Nicotinamide N-methyltransferase (Homo sapiens) (UniProt P40261); details: purified enzyme, MTase-Glo SAH luminescence; measured here: NNMT inhibition; at 40 µM; stronger effect = lower value
Method in brief: as §1

[5] = molecular target: Phenylethanolamine N-methyltransferase (Homo sapiens) (UniProt P11086); details: purified enzyme, MTase-Glo SAH luminescence; measured here: PNMT inhibition; at 40 µM; stronger effect = lower value
Method in brief: as §1
On the % scale 0 is the no-effect control and ±100 the full control effect.

Structure (SMILES)	activity change, negative = inhibition [1]	activity change, negative = inhibition [2]	activity change, negative = inhibition [3]	activity change, negative = inhibition [4]	activity change, negative = inhibition [5]
CC1CCN(S(=O)(=O)c2nn(C)cc2C(=O)NCCc2cccs2)CC1	13.8%	3.26%	12%	9.74%	10.6%
Cc1cc(F)ccc1-c1[nH]nc2ncc(-c3ccnn3C)nc12	-21.4%	-11.4%	-20.9%	-5.38%	-0.394%
c1ccc(CN(CC2=NCCN2)c2ccccc2)cc1	4.83%	8.96%	5.23%	-6.11%	7.51%
CCN(c1nc(N)c(C(=O)N=C(N)N)nc1Cl)C(C)C	-0.063%	6.27%	-12.5%	-7.77%	2.22%
CN(C)c1ccc(-c2nnc3n(Cc4ccccc4)c(=O)c4ccccc4n23)cc1	-13.1%	2.57%	3.98%	-2.4%	-1.32%
CC1(C(=O)NC2CCCCCCC2)Cn2c(ccc2-c2ccco2)C(=O)N1CC1CCCO1 (centres undefined)	-6.14%	0.944%	-2.47%	-17.8%	-7.4%
Cc1cnc2c(C(=O)N3CCCn4nc(C(C)O)cc4C3)cnn2c1 (centres undefined)	-2.79%	-4.67%	0.561%	-2.92%	0.789%
O=C(NCc1ccc2c(c1)OCO2)c1sc(=S)n2c1[nH]c(=O)c1ccc(Cl)cc12	-52.3%	-7.21%	-10.1%	-50.9%	-70.5%
CC1(C(=O)NCc2ccccc2)Cn2nc(-c3ccccc3)cc2C(=O)N1Cc1cccc(Br)c1 (centres undefined)	-0.829%	1.96%	-2.78%	-0.504%	-4.7%
CCOCCCN1C(=O)c2cc(-c3ccc(OC)cc3)nn2CC1(C)C(=O)NC1CCCCC1 (centres undefined)	-5.31%	0.752%	-1.42%	-1.87%	-2.69%
CCCn1c(=O)c2ccc(C(=O)NC(C)CC)cc2n2c(=O)n(CC(=O)Nc3cccc(F)c3)nc12 (centres undefined)	4.23%	4.5%	10.1%	-2.01%	4.43%
CCC(C)NC(=O)c1ccc2c(=O)n(C(C)C)c3nn(CC(=O)NC(C)(C)C)c(=O)n3c2c1 (centres undefined)	0.084%	2.89%	-1.25%	-14.7%	-2.57%
CN(C)Cc1ccc(S(=O)(=O)n2ccc(/C=C/C(=O)NO)c2)cc1	-3.01%	–	5.09%	-0.13%	20%
CN(c1ccccc1)c1ccc2ncn(C3CC3)c(=O)c2n1	-14.8%	-11.9%	-17.7%	-23.4%	-20.8%
COc1c2c(c(C)c3c1C(=O)OC3)OC1(C)CC(O)C34OC(OC)(OC3(C)C)C(O)CC4(C)C1C2 (centres undefined)	0%	4.49%	4.94%	-25.2%	2.21%
CC(C)Cn1c(=O)c2cc(F)ccc2n2c(SCC(=O)NCc3ccccc3)nnc12	5.08%	2.44%	11.5%	-3.22%	6.13%
COCCOc1ccnc(-c2noc([C@@H]3CCCN3Cc3ccncc3)n2)c1	-1.45%	-2.58%	0.677%	-2.96%	0.334%
C[C@]1(O)CCN(C(=O)CCS(=O)(=O)c2ccccc2)C[C@@H]1O	-2.09%	-2.18%	0.452%	-4.32%	8.18%
Cc1cccc(C)c1NC(=O)Cn1c(=O)oc2cc(S(=O)(=O)N3CC(C)CC(C)C3)ccc21 (centres undefined)	-5.22%	5.92%	-0.493%	6.18%	-5.6%
Nc1ncnc2n[nH]c(Nc3ccc(F)cc3)c12	-41.9% and -20.1%	-11.5% and -11.1%	-33.9% and -17.8%	-33.3% and -25.9%	-26% and -24.2%
C[C@@H]1O[C@@H](O[C@H]2[C@@H](OC(=O)[C@]34CCC(C)(C)CC3C3=CCC5[C@@]6(C)C[C@H](O)[C@H](O[C@@H]7O[C@H](C(=O)O)[C@@H](O)[C@H](O)[C@H]7O)[C@@](C)(C(=O)O)C6CC[C@@]5(C)[C@]3(C)CC4)OC[C@H](O)[C@@H]2O)[C@H](O)[C@H](O)[C@H]1O[C@@H]1OC[C@@H](O)[C@H](O)[C@H]1O (some centres undefined)	0.256%	-6.74%	3.78%	-16.8%	-8.52%
O=C1NCCCCCCN(C(=O)c2ccco2)[C@H]2C[C@H](c3nc(-c4cnccn4)no3)C[C@@H]12	-3.81%	-3.08%	-1.4%	-2.95%	3.38%
CCn1cc(NC(=S)Nc2cc(Cl)ccc2OC)c(C(N)=O)n1	-2.94%	-2.8%	9.43%	-10.2%	4.3%
CCOCCCN1C(=O)c2cc3occc3n2CC1(C)C(=O)NC1CCCCCCC1 (centres undefined)	-6.97%	2.76%	-1.6%	0.663%	-1.75%
CC(C)CCNC(=O)C1CCCN(C2CCN(CCc3ccccc3)CC2)C1 (centres undefined)	0.039%	-3.99%	-2.4%	-2.6%	1.61%
O=C(c1ccc(Cn2ccn3nc4c(c3c2=O)CCCC4)cc1)N1CCN(c2ccccn2)CC1	-11.7%	-7.82%	-9.98%	-26%	-5.85%
O=C(CCn1ccc2cc(S(=O)(=O)N3CCCCC3)ccc21)NCCc1ccc(Cl)cc1	-1.35%	0.056%	4.32%	-6.14%	0.47%
